# Results published in PubChem BioAssay AID1347417 (National Center for Advancing Translational Sciences (NCATS), 2020).
# Among all 120,000 compounds or so, about 5,300 (4.4%) were called active. The inconclusive results got no clear call from the source; some entries with a clear call stand among them for comparison. The call rests on the fitted dose curve; in most records, active means well fitted inhibition curve with a large enough effect; inconclusive means small, poorly fitted or top-dose-only effect; inactive means no such curve, though single readings can be large or run the other way. Where the call is inconclusive, the potency comes from a doubtful curve fit.
# Assay: qHTS Primary assay for Inhibitors of Plasmodium falciparum Dd2 growth in vitro; further: nearly all actives have a fitted effect of over 65% in size;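 on activity, negative = inhibition: plate controls were DMSO vehicle for no effect and reference drug for full effect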
# Settings: P. falciparum Dd2 growth, SYBR Green, 72 h; activity, negative = inhibition: at 28.9 µM (top of the series) unless noted; series mostly up to 28.9 µM
# In short: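 Infected erythrocytes (Dd2, 0.3% parasitemia, 2.5% hematocrit final) are added to compound in RPMI-1640/Albumax II medium, grown 72 h at 37C in low oxygen, then lysed with saponin/Triton-X containing SYBR Green and read by fluorescence.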
# Potency means the concentration at half of the fitted maximal effect; tags describe the fitted curve by direction and shape.
SMILES,Potency,"activity, negative = inhibition",outcome
CC(C)N1CCC2(CC1)CN(C(=O)Cc1ccsc1)Cc1ccccc1O2,"inconclusive: 0.708 µM [inhibitor, partial curve, poor fit]",,
O=C(c1ccc(OC2CCN(C(=O)c3cccs3)CC2)nc1)N1CCOCC1,,inactive: 8.22%,
CC(C)(C)C1CCc2nc(NC(=O)Cc3ccc(Cl)cc3)sc2C1 (stereo not given),active: 10 µM,,
COCC1CN(C)CC12CCN(C(=O)CCCc1ccccc1)CC2 (stereo not given),"inconclusive: 7.08 µM [inhibitor, partial curve, poor fit]",,
CCn1ccc(C(=O)N2C[C@@H]3CCCN4CCC[C@@H]([C@H]34)[C@H]2CCCC(=O)Nc2ccccc2)n1,"inconclusive: 17.8 µM [inhibitor, single point]",,
Cc1cc(C)c2c(=O)cc(CSCC(=O)Nc3nnc(C)s3)[nH]c2c1,,inactive: -0.999%,
CCOc1ccc(C2c3c(-c4ccccc4O)n[nH]c3C(=O)N2Cc2ccncc2)cc1 (stereo not given),active: 14.1 µM,,
O=C(Cc1ccccc1)NC1CCCc2c1[nH]c1ccccc21 (stereo not given),"inconclusive: 10 µM [inhibitor, single point]",,
COc1cccc(CCC(=O)N2CCCCCC2CN2CCC(OC)CC2)c1 (stereo not given),"inconclusive: 0.891 µM [inhibitor, full curve, poor fit]",,
Cc1ccc(N(CC(=O)NC(C)c2ccccc2)S(=O)(=O)c2c(C)noc2C)cc1 (stereo not given),"inconclusive: 17.8 µM [inhibitor, single point]",,
CCN(CC)CCCNC(=O)c1oc2c(c1C)-c1nn(Cc3ccc(Cl)cc3)cc1CC2,"inconclusive: 3.16 µM [inhibitor, partial curve, poor fit]",,
CCC1CN(Cc2nc(-c3ccc(OC)cc3F)oc2C)CCN1C(C)C (stereo not given),"inconclusive: 11.2 µM [inhibitor, single point]",,
CCC(CC)CN1CCC2(CC1)CC1C(=O)N(CC)C(=O)N1C2 (stereo not given),"inconclusive: 10 µM [inhibitor, partial curve]",,
CN(C)c1ccc(-c2noc([C@@H]3CCCN3Cc3nc4ccccc4n3C)n2)cn1,"inconclusive: 11.2 µM [inhibitor, partial curve, poor fit]",,
CCOc1ccccc1NS(=O)(=O)c1c(-c2ccc(C)cc2)csc1C(=O)OC,active: 10 µM,,
Cc1cnc(C2CCN(C(=O)OC(C)(C)C)CC2)[nH]1,"inconclusive: 20 µM [inhibitor, partial curve, poor fit]",,
CCOC(=O)c1cn(C2CN(S(=O)(=O)c3cccc(Br)c3)C2)nn1,"inconclusive: 1 µM [inhibitor, single point]",,
CN(Cc1ccccc1)C(=O)CC1CCCCN(Cc2ccccc2)C1=O (stereo not given),"inconclusive: 17.8 µM [inhibitor, single point]",,
Cc1ccc(NC(=O)CSc2nc3ccccc3c3nc(CCn4c(C)nc5ccccc54)nn23)cc1F,"inconclusive: 17.8 µM [inhibitor, single point]",,
COC[C@@H]1CN(S(=O)(=O)c2ccc(C)c(F)c2)C[C@H]1C(N)=O,,inactive: 2.75%,
O=C1CC(c2ccccc2)N(Cc2ccncc2)CCCN(C(=O)C2(c3ccccc3)CC2)CCN1 (stereo not given),"inconclusive: 8.91 µM [inhibitor, partial curve, poor fit]",,
CCOC(=O)c1cc(-c2ccccc2)n(CCCC(=O)Nc2ccc(CC)cc2)c1C,"inconclusive: 17.8 µM [inhibitor, single point]",,

SMILES,Potency,"activity, negative = inhibition",outcome
O=C(c1ccc(C(F)(F)F)cc1)N1CCC2(CC1)CCN(Cc1cccs1)c1ccccc1O2,"inconclusive: 2.24 µM [inhibitor, partial curve, poor fit]",,
O=C(c1ccc2c(Cl)c3c(nc2c1)CCCC3)N1CCN(c2ccccc2)CC1,,inactive: -16.4%,
CCn1ncc(N2CCC(NC(=O)Cc3ccccc3F)CC2)cc1=O,,inactive: -29.2%,
C=CCC1(CO)CCCN(Cc2cc(C3CCCCC3)no2)C1 (stereo not given),"inconclusive: 20 µM [inhibitor, single point]",,
COCCN1Cc2ccc(NCc3ccccc3)nc2C(C)(C(=O)Nc2ccccc2)C1 (stereo not given),"inconclusive: 8.91 µM [inhibitor, partial curve, poor fit]",,
COc1ccc(Cl)cc1C(=O)N1CC(=O)N(c2ccccc2C#N)CC1C (stereo not given),,inactive: -8.91%,
CN(C)c1ccc(C(=O)N2CCC(n3cc(-c4nc(-c5ccccc5)no4)nn3)CC2)cc1,"inconclusive: 1.78 µM [inhibitor, partial curve]",,
Cc1ccc(N2C(=O)N[C@@H]3CCN(S(=O)(=O)c4ccc(Cl)cc4)[C@@H]3C2=O)cc1,,inactive: -19% [at 44.1 µM],
O=C(c1ccc(=O)[nH]c1)N1C[C@@H](CO)[C@H](c2ccccn2)C1,,inactive: 10.5%,
CCCCCNC(=O)Cc1csc2nc(C)c(-c3cc(C)n(-c4ccccc4CC)n3)c(=O)n12,,inactive: -19.2%,
Fc1ccc(CNc2ncnc3c2c(-c2ccccc2)cn3-c2ccccc2)cc1,"inconclusive: 17.8 µM [inhibitor, single point]",,
O=C(c1ccccc1)N1CCNc2cnc(Nc3cccc(C(F)(F)F)c3)nc2C1,"inconclusive: 8.91 µM [inhibitor, partial curve, poor fit]",,
Cc1ccccc1CCC1CCCN(C(=O)c2cccc(O)c2C)C1 (stereo not given),"inconclusive: 17.8 µM [inhibitor, single point]",,
COc1ccc(CNC[C@H]2C[C@@H]3CCN2C[C@@H]3c2cc(C3CCCCC3)nn2C)cc1,"inconclusive: 7.94 µM [inhibitor, partial curve, poor fit]",,
O=C1Nc2ccccc2CC12CCCN2Cc1ccc(C(F)(F)F)cc1 (stereo not given),"inconclusive: 14.1 µM [inhibitor, partial curve, poor fit]",,
CNC(=O)N1CCC(C2CCN(C(=O)c3ccccc3OC)C2)CC1 (stereo not given),,inactive: 14.1%,
Cc1nc2ccccc2nc1CN1CCC2(CCC(=O)N(CCO)C2)CC1,"inconclusive: 14.1 µM [inhibitor, partial curve]",,
CCCOc1ccc(C2c3c(-c4ccccc4O)n[nH]c3C(=O)N2Cc2ccncc2)cc1OCC (stereo not given),"inconclusive: 17.8 µM [inhibitor, partial curve, poor fit]",,
O=C1NCCCCCCN(Cc2ccncc2)[C@@H]2CN(C(=O)Nc3ccccc3F)CC[C@@H]12,"inconclusive: 20 µM [inhibitor, single point]",,
COc1ccc(C)cc1NC(=O)N1CCCC2(C1)Nc1cccnc1NC2=NC1CCCC1 (stereo not given),active: 1.26 µM,,
COc1ccc(C[C@H](NC(=O)C2=C[C@@H](NC(=O)CSCC(=O)O)[C@@H](O)[C@H](O)C2)C(N)=O)cc1,,inactive: 16.7%,
CCOc1ccc(NC(=O)C(C)Sc2nnc3cc(C)c4ccccc4n23)cc1 (stereo not given),"inconclusive: 17.8 µM [inhibitor, single point]",,

SMILES,Potency,"activity, negative = inhibition",outcome
CC(C)NC(=O)c1nc(-c2ccsc2)c2cnccn12,"inconclusive: 2.51 µM [inhibitor, partial curve, poor fit]",,
CCOC(=O)c1ccc(NC(=O)c2oc3ccc4c(c3c2C)C(=O)CC(C)(CC)O4)cc1 (stereo not given),"inconclusive: 10 µM [inhibitor, single point]",,
Cc1noc(C)c1S(=O)(=O)N1CCC(c2noc(-c3cccnc3)n2)C1 (stereo not given),,,inactive [at 5.79 µM]
CCc1cc(=O)n(CC(=O)N2CCN(c3ccc(OC)cc3)CC2)c(N2CCOCC2)n1,,,inactive
CC(C)c1ccc(CNCCSc2nnnn2C)cc1,"inconclusive: 12.6 µM [inhibitor, single point]",,
Fc1ccc(C2Cn3nnc(-c4nc(-c5ccc(OC(F)(F)F)cc5)no4)c3CO2)cc1 (stereo not given),"inconclusive: 17.8 µM [inhibitor, single point]",,
CC(O)c1cc2n(n1)CCN(Cc1cc(=O)n3nc(C4CC4)sc3n1)C2 (stereo not given),"inconclusive: 8.91 µM [inhibitor, partial curve, poor fit]",,
Cc1ccc2nc(-c3ccccn3)c(Nc3ccc(F)cc3)n2c1,active: 3.98 µM,,
CCC(C)NC(=O)c1ccc2c(c1)N(Cc1ccccc1)C(=O)c1ccccc1S2(=O)=O (stereo not given),active: 3.16 µM,,
COCc1nc(C2CC(N)C2)cc(N(C)Cc2csc(C(C)C)n2)n1 (stereo not given),"inconclusive: 4.47 µM [inhibitor, partial curve]",,
COCCn1c(C)cc(C(=O)N2CCc3nn(CCOC)c(=O)n3CC2)c1C,,inactive: 29.2%,
CCCC(=O)N1CC2(CCCN2C2COC2)Cc2ccccc21 (stereo not given),"inconclusive: 11.2 µM [inhibitor, single point]",,
CCN(CC)c1cc(CCC(=O)NCc2ccc(N3CCOCC3)cc2)ccn1,"inconclusive: 6.31 µM [inhibitor, partial curve, poor fit]",,
COc1cccc(Nc2cc3c(cn2)CN(C)CCN3C)c1,"inconclusive: 11.2 µM [inhibitor, single point]",,
O=C(Cc1ccc(F)cc1)N1CCC(c2nc3c(nnn3Cc3ccc(Cl)cc3)c(=O)[nH]2)CC1,active: 14.1 µM,,
CC1(NC(=O)C2CC2)CN(c2ccc(Oc3ccccc3)cc2)C1,"inconclusive: 22.4 µM [inhibitor, single point]",,
O=C(CCc1ccc(-c2cccs2)o1)NC[C@@H]1C[C@H](F)CN1,"inconclusive: 8.91 µM [inhibitor, single point]",,
Cc1ccc(CCNC(=O)C2CCCN(Cc3nc(-c4cccc(Cl)c4)oc3C)C2)cc1 (stereo not given),"inconclusive: 17.8 µM [inhibitor, single point]",,
O=C(NCCc1ccncc1)C1CN(C(=O)CCCc2ccccc2)CC12CCOCC2 (stereo not given),,inactive: -12.9%,
O=C(C1CCCO1)N1CCN(c2nc(-c3ccncc3)nc3c2CNC3)CC1 (stereo not given),,inactive: 4.75%,
COc1cccc(-c2nc3c(c(SCc4ccccc4)n2)Cc2c(CO)cnc(C)c2O3)c1,"inconclusive: 5.62 µM [inhibitor, partial curve, poor fit]",,
